Data from PMC4336329 (PLoS ONE, 2015).
Hit rate of the full screen: of about 310,000 compounds, about 2,200 (0.71%) showed an effect of 50% or more. The effect is printed as a negative number. This is one part of the list.

biological target: human ether-à-go-go-related gene (hERG) potassium channel (human, UniProt Q12809); assay: primary screen, population patch clamp on CHO cells stably expressing hERG
Sequence (Q12809 whole entry, looked up): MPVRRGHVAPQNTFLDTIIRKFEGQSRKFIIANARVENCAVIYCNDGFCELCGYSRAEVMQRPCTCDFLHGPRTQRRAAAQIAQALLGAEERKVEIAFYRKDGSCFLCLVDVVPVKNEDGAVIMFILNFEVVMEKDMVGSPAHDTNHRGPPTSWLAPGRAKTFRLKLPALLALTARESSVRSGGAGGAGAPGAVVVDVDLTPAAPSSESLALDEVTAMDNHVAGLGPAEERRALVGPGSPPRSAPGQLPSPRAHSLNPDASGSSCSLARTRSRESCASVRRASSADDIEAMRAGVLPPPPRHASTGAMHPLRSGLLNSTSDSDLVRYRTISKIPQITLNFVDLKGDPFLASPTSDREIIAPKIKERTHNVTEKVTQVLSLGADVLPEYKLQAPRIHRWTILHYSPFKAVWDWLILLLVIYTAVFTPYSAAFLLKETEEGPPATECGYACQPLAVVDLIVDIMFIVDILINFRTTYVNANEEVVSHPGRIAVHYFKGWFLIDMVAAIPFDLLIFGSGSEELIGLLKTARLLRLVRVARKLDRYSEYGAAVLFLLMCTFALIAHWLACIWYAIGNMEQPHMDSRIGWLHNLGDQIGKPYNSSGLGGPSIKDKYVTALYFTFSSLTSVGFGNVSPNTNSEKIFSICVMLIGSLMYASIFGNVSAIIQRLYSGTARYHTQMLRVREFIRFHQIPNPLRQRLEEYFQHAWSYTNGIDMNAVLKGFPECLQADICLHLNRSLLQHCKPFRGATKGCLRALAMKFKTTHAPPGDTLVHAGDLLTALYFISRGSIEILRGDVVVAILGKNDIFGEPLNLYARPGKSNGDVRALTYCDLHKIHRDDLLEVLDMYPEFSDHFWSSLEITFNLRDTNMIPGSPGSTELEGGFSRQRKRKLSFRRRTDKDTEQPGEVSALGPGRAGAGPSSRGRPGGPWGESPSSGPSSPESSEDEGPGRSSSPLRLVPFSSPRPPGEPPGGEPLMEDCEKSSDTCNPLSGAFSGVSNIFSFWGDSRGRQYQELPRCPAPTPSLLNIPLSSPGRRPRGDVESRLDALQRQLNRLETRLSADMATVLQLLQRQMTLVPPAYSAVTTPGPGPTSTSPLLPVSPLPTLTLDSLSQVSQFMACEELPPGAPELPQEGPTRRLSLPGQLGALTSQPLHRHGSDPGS

Compound	hERG current change (%, negative = inhibition) at 1uM [%]
c1ccc(-c2ccc(-c3cnc4n3CCCCC4)cc2)cc1	0.861
Cc1ccc(Cn2nnc3c(=O)n(CC(=O)NCc4ccccc4)cnc32)cc1	1.33
Clc1ccccc1CN1CCN(/N=C/C=C\c2ccco2)CC1	11.9
Cc1ccc(C2Nc3ccccc3C(=O)N2CCN2CCNC2=O)cc1 (stereo not shown)	5.34
O=c1c2nnn(-c3cccc(F)c3)c2ncn1Cc1ccccn1	8.1
CCOC(=O)/C=C1\SCC(=O)N1CC(=O)NCc1cccc(Cl)c1	-0.928
COc1ccc(NC(=O)Cn2c3ccccc3c3nc4n(c(=O)c32)CCS4)cc1	8.08
COc1ccc(C(=O)NC2CC3CCCC(C2)N3CC(C)C)cc1OC (stereo not shown)	8.35
O=c1[nH]cnc2c1C1(CCCC1)Cc1ccccc1-2	11.3
O=C(O)CCC(=O)OCC1CCCCC1	4.52
Cc1ccc(NC(=O)C2CC(=O)N/C(=N/NC(=O)c3ccc(C)cc3)S2)cc1 (stereo not shown)	10.1
CCOc1ccccc1CN1CCNC(=O)C1CC(=O)N(C)C1CCOCC1 (stereo not shown)	12.2
Cc1ccc(-c2csc3ncnc(SCC(=O)NCC4CCCO4)c23)cc1 (stereo not shown)	1.98
O=C(NCCC1CCCCN1S(=O)(=O)c1ccccc1)C(=O)Nc1ccc(F)cc1 (stereo not shown)	10.2
O=C(NC(=S)Nc1ccccc1)c1cc(-c2ccccc2)nc2ccccc12	3.22
CN1CCN(C(=S)C(=O)Nc2ccccc2)CC1	7.93
Cc1cccnc1NC(=O)C1CC(=O)N(c2ccc3c(c2)OCCO3)C1 (stereo not shown)	19.1
CCn1cc(CN2CCN(Cc3ccsc3)C(CCO)C2)cn1 (stereo not shown)	2.92
CCn1cc(C(=O)O)c(=O)c2cnc(N3CCN(C(=S)Nc4ccc(F)cc4)CC3)nc21	12.6
CN(/C(=N/S(=O)(=O)c1cccs1)c1ccccc1)c1ccc(O)cc1	12.5

Compound	hERG current change (%, negative = inhibition) at 1uM [%]
Cc1c(Cl)cccc1NC(=O)COC(=O)CCc1nc2ccccc2n1-c1ccccc1	-8.56
Cn1c(N)c(C(=O)COC(=O)c2ccccc2NCc2ccco2)c(=O)n(C)c1=O	9.3
CCOC(=O)[C@@H]1[C@H]2COc3ccccc3[C@@H]2N2C(=O)N(c3ccc(Cl)cc3)C(=O)[C@@]12C	3.17
O=C(c1ccc(OC2CCN(Cc3ccccn3)CC2)cc1)N1CCC[C@H]1CO	18.3
Cc1nc(NC(=O)c2ccco2)sc1C(=O)O	0.159
CCC(=O)c1ccc(OCC(=O)OCC(=O)Nc2c(C)n(C)n(-c3ccccc3)c2=O)cc1	15.9
CC1=NN(C(N)=S)C(=O)C1N=Nc1ccccc1C(=O)O (stereo not shown)	16.9
CCOc1ccccc1-n1c(SC(C)C(=O)NCC2CCCO2)nc2ccccc2c1=O (stereo not shown)	4.42
CC(c1ccccc1)C1CC(=O)N(c2ccc([N+](=O)[O-])cc2)C1=O (stereo not shown)	-4.32
COCCC(=O)NC1CCCc2c1cnn2-c1cccc(C)c1C (stereo not shown)	10.8
Cc1[nH]c2ccc(F)cc2c(=O)c1SC(F)(F)C(F)F	15.3
Cc1nc(NC(=O)c2ccc(Cl)cc2)sc1-c1csc(Nc2cccc(F)c2)n1	8.37
Cc1ccnc2c(N3C(=O)C4C5C=CC(C5)C4C3=O)cccc12 (stereo not shown)	3.2
CCN(CC)CCn1c(C)nc2c(sc3nc4c(cc32)COC(C)(C)C4)c1=O	2.62
CNC(=O)N1c2ccccc2C=Cc2ccccc21	15.2
CCC(=O)N1C(C(=O)N2CCCC2)CSC1c1ccc(OC)cc1 (stereo not shown)	-2.81
O=C(O)c1ccc(/C=N/Nc2ncc(C(F)(F)F)cc2Cl)cc1	5.48
COc1cccc(-c2nnc(NC(=O)c3ccco3)s2)c1	16.3
COC(c1ccccc1)c1nnc(CCC(=O)N2CCCCCCC2)o1 (stereo not shown)	0.333
Cc1ccc2c(c1)CC1(CN2C)C(=O)OC2(CCCCC2)OC1=O	15.2

Compound	hERG current change (%, negative = inhibition) at 1uM [%]
CCCN1C2CCCC1CC(NC(=O)c1cccc(Cl)c1)C2 (stereo not shown)	-2.98
O=C(CN1CCSCC1)N/N=C/c1ccc(F)cc1F	-0.148
CCOC(=O)CC12CN3CN(C1)CC(CC(=O)OCC)(C3)C2=O	13.7
O=C(COC(=O)Cn1cnc2ccccc21)NCCC1=CCCCC1	2
CC(=O)Nc1sc(-c2ccc(Cl)cc2)nc1-c1ccccc1	4.66
CCOC(=O)/C(C#N)=C1/CCCCCN1C	4.06
COC(=O)c1ccc(CN2CCN(CC(C)C)C(CCO)C2)cc1 (stereo not shown)	5.8
CCOCCCNC(=O)Cc1ccc(F)cc1	12.7
O=C(Nc1ccccc1C(=O)Nc1ccccc1)c1cccs1	6.43
O=C(CN(C(=O)CCC(=O)Nc1nccs1)c1ccc2c(c1)OCO2)NCc1ccccc1	12.9
CCc1ccc(C(=O)CN2C(=O)NC3(CCc4ccccc43)C2=O)cc1 (stereo not shown)	9.06
CCCN1Cc2cccc(C(=O)NC3CCCC3)c2C1=O	5.06
Cc1ccc(NS(=O)(=O)c2c(C)[nH]c(C)c2C(=O)N2CCCC2)cc1	11.6
Cc1ccc(N2CCN(S(=O)(=O)c3ccc(-n4cnnn4)cc3)CC2)c(C)c1	22
Cc1cccc2nc(CSc3ccc(Cl)cc3)cn12	4.27
CC(C)Cn1c(CCNC(=O)c2ccco2)nc2ccccc21	2.29
Cc1ccc(OCC(=O)NNC(=O)c2cc3ccccc3o2)cc1	10.9
CCOC(=O)c1c(-c2ccc(C)cc2)csc1NC(=O)c1cccc(N2C(=O)CCC2=O)c1	13.7
